# Source: PubChem BioAssay AID902 (National Center for Advancing Translational Sciences (NCATS), 2007)
# Among all 130,000 compounds or so, about 1,900 (1.5%) were called active. The inconclusive results got no clear call from the source; some entries with a clear call stand among them for comparison. The call rests on the fitted dose curve; in most records, active means well fitted cell-killing curve with a large enough effect; inconclusive means small, poorly fitted or top-dose-only effect; inactive means no such curve, though single readings can be large or run the other way. A potency beside an inconclusive call is a rough fit, not a confirmed value.
# Test: qHTS Screen for Compounds that Selectively Target Cancer Cells with p53 Mutations: Cytotoxicity of p53ts Cells at the Nonpermissive Temperature; further: nearly all actives have a fitted effect of over 55% in size
# Conditions: H1299-p53A138V viability at 39C, ATP luminescence, 24 h; activity change, negative = cell killing: at 46.1 µM (top of the series)
# On the % scale 0 is the no-effect control and ±100 the full control effect; potency means the concentration at half of the fitted maximal effect; tags describe the fitted curve by direction and shape.
SMILES,Potency,"activity change, negative = cell killing"
O=C(NCc1ccccc1Cl)c1cc2cccc3c2n1CCS3,"inconclusive: 0.0355 µM [cytotoxic, full curve, poor fit]",–
COc1ccccc1-c1nc(-c2ccc(C)nc2OC)no1,"inconclusive: 15.8 µM [cytotoxic, single point]",–
COc1cc(OC)cc(-c2nc3cc(C)ccc3o2)c1,"inconclusive: 10 µM [cytotoxic, single point]",–
CC(C)C(=O)Nc1cccc(C(=O)Nc2nnc(C(C)C)s2)c1,inactive,–
CCOc1ccc(-c2nnc(N)s2)cc1,"inconclusive: 10 µM [cytotoxic, partial curve]",–
CCOC(=O)c1scc(-c2ccc(C)cc2)c1S(=O)(=O)Nc1ccc(F)c(F)c1,"inconclusive: 31.6 µM [cytotoxic, single point]",–
CC(C)c1nnc(NC(=O)c2nc(S(=O)(=O)Cc3ccccc3)ncc2Cl)s1,active: 6.31 µM,–
Cc1ccc(-n2c(SCC(=O)N3CCC(C)CC3)nc3c([nH]c4ccccc43)c2=O)cc1,inactive,–
COc1ccc(C2CC(=O)c3c([nH]c(C(=O)OCCOc4ccccc4)c3C)C2)cc1OC (stereo not given),"inconclusive: 15.8 µM [cytotoxic, single point]",–
O=C(Cn1c(=O)nc(-c2ccccc2)c2cc(Cl)ccc21)NCCCc1ccccc1,"inconclusive: 25.1 µM [cytotoxic, single point]",–
COc1ccc(C2CC(=O)N(CC(=O)Nc3ccc(C(F)(F)F)cc3)c3ccccc3S2)cc1 (stereo not given),–,inconclusive: -31.8% [cytotoxic]
COc1ccc(Cl)cc1S(=O)(=O)Nc1cccc(-c2ccc(N3CCOCC3)nn2)c1,"inconclusive: 0.158 µM [cytotoxic, full curve, poor fit]",–
c1coc(-c2nnc(NC3=NCCC3)o2)c1,"inconclusive: 20 µM [cytotoxic, single point]",–
O=C1CCCC(O)=C1N=Nc1c(Cl)cc(Cl)cc1Cl,inactive,–
O=C(NCc1ccc2c(c1)OCO2)c1nn(-c2ccccc2)c(=O)c2ccccc12,inactive,–
c1coc(C2Nc3ccccc3-c3nc4ccccc4n32)c1 (stereo not given),inactive,–
Nc1c(C(=O)Nc2ccc(Cl)cc2F)sc2nc(-c3cccs3)ccc12,"inconclusive: 15.8 µM [cytotoxic, single point]",–
CCOc1ccc(-c2nonc2NC(=O)c2oc3cc(Br)ccc3c2C)cc1,"inconclusive: 0.631 µM [cytotoxic, full curve, poor fit]",–
CC(NC(=O)c1cc2sccc2n1Cc1ccc(F)cc1)c1ccccc1 (stereo not given),"inconclusive: 12.6 µM [cytotoxic, partial curve]",–
CCOc1ccccc1Nc1ccc2cc(S(=O)(=O)N3CCCCC3)ccc2n1,"inconclusive: 0.794 µM [cytotoxic, full curve, poor fit]",–
O=C(CC1(O)C(=O)Nc2cc(Cl)cc(Cl)c21)c1ccncc1 (stereo not given),"inconclusive: 28.2 µM [cytotoxic, single point]",–
Cc1cc(C)n(-c2nc3ccccc3c(=O)n2OCC(=O)OCc2ccccc2)n1,"inconclusive: 15.8 µM [cytotoxic, partial curve]",–
CCCC[C@@H]1C[C@H]1C(NC(=O)c1ccccc1)c1ccc(Cl)cc1 (stereo not given in full),inactive,–
COc1ccc(C(=O)N2CCC[C@@]3(CCN(Cc4cc(C(F)(F)F)cc(C(F)(F)F)c4)C3)C2)cc1,inactive,–

SMILES,Potency,"activity change, negative = cell killing"
Cc1cccc(C(=O)Nc2cccc(C(=O)OCc3cc(=O)n4nc(C5CC5)sc4n3)c2)c1,–,inconclusive: -31.8% [cytotoxic]
N#Cc1ccccc1NC(=O)C(=O)NCC(c1cccnc1)N1CCN(c2ccccc2)CC1 (stereo not given),"inconclusive: 12.6 µM [cytotoxic, partial curve]",–
c1ccc(N2CCN(c3nc4cc5c(cc4s3)OCO5)CC2)cc1,inactive,–
Cc1oncc1C(=O)Nc1ccc(C(F)(F)F)cc1,"inconclusive: 10 µM [cytotoxic, partial curve]",–
CC1Cc2ccccc2N1CC(=O)NCc1ccc2c(c1)OCO2 (stereo not given),inactive,–
O=C(NCCCN1CCN(c2cccc(Cl)c2)CC1)c1nnc(Cc2ccc(F)cc2Cl)o1,"inconclusive: 12.6 µM [cytotoxic, single point]",–
Cc1ccc(N2C(=O)C(CC(=O)Nc3ccccc3)N(CCC3=CCCCC3)C2=O)cc1 (stereo not given),"inconclusive: 15.8 µM [cytotoxic, single point]",–
Cc1ccc2nc(NC(=O)CSc3ncc(C(=O)Nc4ccccc4)c(=O)n3C)sc2c1,inactive,–
CCOc1ccccc1NC(=O)CN1C(=O)C(=O)c2ccccc21,"inconclusive: 31.6 µM [cytotoxic, single point]",–
COc1ccc(-n2nc(C(=O)NCC(=O)N3CCN(c4ccccn4)CC3)c3ccccc3c2=O)cc1,active: 12.6 µM,–
O=C(CCS(=O)(=O)c1nc(-c2cccs2)cc(C(F)(F)F)n1)Nc1cccc(O)c1,active: 12.6 µM,–
COc1ccc(NC(=O)c2nc(S(=O)(=O)Cc3ccc(C)cc3)ncc2Cl)cc1,active: 6.31 µM,–
COc1cccc(-c2nc(-c3ccccn3)no2)c1OC,"inconclusive: 10 µM [cytotoxic, single point]",–
CC(=O)Nc1cccc(-c2csc(Nc3ccc(C)cn3)n2)c1,"inconclusive: 22.4 µM [cytotoxic, single point]",–
Cc1ccc(C)c(CN2C(=O)C(O)(c3c[nH]c4ccccc34)c3ccccc32)c1 (stereo not given),"inconclusive: 20 µM [cytotoxic, single point]",–
CC(CCc1ccccc1)NCC(O)c1ccc(O)c(C(N)=O)c1 (stereo not given),inactive,–
COc1cccc(NC(=O)c2oc3ccccc3c2NC(=O)Cc2cccc(C)c2)c1,"inconclusive: 15.8 µM [cytotoxic, single point]",–
Cc1cn2c(=O)cc(COC(=O)C(C)Oc3ccccc3)nc2s1 (stereo not given),"inconclusive: 0.0251 µM [cytotoxic, full curve, poor fit]",–
CCOc1ccc(S(=O)(=O)n2nc(C)c(S(=O)(=O)N3CCCCC3)c2C)cc1,"inconclusive: 0.0158 µM [cytotoxic, full curve, poor fit]",–
O=C(Nc1ccc(Cl)cc1C(F)(F)F)c1cc(S(=O)(=O)N2CCOCC2)ccc1F,"inconclusive: 5.01 µM [cytotoxic, partial curve]",–
COc1ccccc1-c1nc(-c2ccccn2)no1,active: 5.01 µM,–
Cc1cccc(C)c1NC(=O)Cn1c(=O)n(Cc2ccc3c(c2)OCO3)c(=O)c2oc3ccccc3c21,"inconclusive: 3.16 µM [cytotoxic, full curve]",–
Nc1c(-c2nc(-c3ccccc3)no2)nnn1CC(=O)Nc1cccc(F)c1,"inconclusive: 10 µM [cytotoxic, single point]",–
Cc1ccc(C)c(NC(=O)c2ccc(S(=O)(=O)C(F)F)cc2)c1,"inconclusive: 35.5 µM [cytotoxic, single point]",–

SMILES,Potency,"activity change, negative = cell killing"
N#Cc1c(-n2ncnc2-c2ccccc2C(F)(F)F)sc2c1CCCCC2,"inconclusive: 0.501 µM [cytotoxic, partial curve]",–
COc1ccccc1CCNC(=O)Cc1c(C)c2cc3c(C)coc3cc2oc1=O,"inconclusive: 31.6 µM [cytotoxic, single point]",–
Cc1ccc(C(=O)Nc2ccc(S(=O)(=O)Nc3onc(C)c3C)cc2)cc1,"inconclusive: 15.8 µM [cytotoxic, single point]",–
COc1ccccc1-n1cc(C(=O)NCC(=O)N2CCN(c3ccccc3)CC2)c2ccccc2c1=O,active: 12.6 µM,–
Cc1ccc(Cl)cc1N1CCN(CCCNC(=O)C2COc3ccccc3C2)CC1 (stereo not given),"inconclusive: 12.6 µM [cytotoxic, partial curve]",–
COc1c(-c2coc3cc4c(cc3c2=O)CC(OC(C)=O)C(C)(C)O4)ccc2c1C=CC(C)(C)O2 (stereo not given),inactive,–
CCOc1ccc(S(=O)(=O)NCCc2csc3nc(-c4ccc(F)cc4)nn23)cc1,"inconclusive: 0.01 µM [cytotoxic, full curve, poor fit]",–
O=C(C1COc2ccccc2O1)N1CCCC1 (stereo not given),inactive,–
O=C(Nc1cccc(Cl)c1)Nc1ccc2c(c1)OCO2,inactive,–
CN1/C(=C/C(=O)C2CCC2)Sc2ccccc21,"inconclusive: 12.6 µM [cytotoxic, partial curve]",–
CC(C)c1ccc(Nc2nc(NCc3ccco3)nc(N3CCOCC3)n2)cc1,inactive,–
CCN1C(=O)CC(N2CCN(c3ccc(C(=O)c4ccccc4)cc3)CC2)C1=O (stereo not given),inactive,–
COc1cccc(NC(=O)c2oc3ccccc3c2NC(=O)c2cc3ccccc3o2)c1,"inconclusive: 10 µM [cytotoxic, partial curve]",–
CCCOC(=O)Nc1nc2ccccc2o1,"inconclusive: 10 µM [cytotoxic, single point]",–
Cc1ccc(NC(=O)CN2C(=O)COc3ccc(S(=O)(=O)Nc4ccccc4)cc32)c(C)c1,inactive,–
O=C(Nc1cccc2ccccc12)OC1C=CS(=O)(=O)C1 (stereo not given),"inconclusive: 31.6 µM [cytotoxic, single point]",–
Cc1ccc(C2=NC(c3ccccc3)=Nc3ccc(Cl)cc3N2)cc1,"inconclusive: 31.6 µM [cytotoxic, single point]",–
COc1ccccc1N1CCN(c2ncnc3c2nnn3C)CC1,inactive,–
Cn1c(=O)c2c(nc(CN3CCOCC3)n2CCN2CCOCC2)n(C)c1=O,inactive,–
N#Cc1ccc(-c2cccs2)nc1SCC(=O)Nc1cccc(C(F)(F)F)c1,"inconclusive: 2.51 µM [cytotoxic, single point]",–
CCCCCn1c(=O)[nH]c2cc(C(=O)Nc3ccc(F)c(F)c3)ccc2c1=O,inactive,–
COc1ccccc1C1c2c(-c3ccc(Cl)cc3)n[nH]c2C(=O)N1c1ccc(C)cc1 (stereo not given),"inconclusive: 12.6 µM [cytotoxic, single point]",–
